# Measured values as given in the supplement of paper PMC3334620.
# In all, about 33,000 sequences were measured (“E-score (-0.5 to 0.5)”: median about -0.035, highest 2% from about 0.35 on). The list shows a part of the results.
# Molecular target: T1, Pdr3 (UniProt P33200)
# T1 sequence: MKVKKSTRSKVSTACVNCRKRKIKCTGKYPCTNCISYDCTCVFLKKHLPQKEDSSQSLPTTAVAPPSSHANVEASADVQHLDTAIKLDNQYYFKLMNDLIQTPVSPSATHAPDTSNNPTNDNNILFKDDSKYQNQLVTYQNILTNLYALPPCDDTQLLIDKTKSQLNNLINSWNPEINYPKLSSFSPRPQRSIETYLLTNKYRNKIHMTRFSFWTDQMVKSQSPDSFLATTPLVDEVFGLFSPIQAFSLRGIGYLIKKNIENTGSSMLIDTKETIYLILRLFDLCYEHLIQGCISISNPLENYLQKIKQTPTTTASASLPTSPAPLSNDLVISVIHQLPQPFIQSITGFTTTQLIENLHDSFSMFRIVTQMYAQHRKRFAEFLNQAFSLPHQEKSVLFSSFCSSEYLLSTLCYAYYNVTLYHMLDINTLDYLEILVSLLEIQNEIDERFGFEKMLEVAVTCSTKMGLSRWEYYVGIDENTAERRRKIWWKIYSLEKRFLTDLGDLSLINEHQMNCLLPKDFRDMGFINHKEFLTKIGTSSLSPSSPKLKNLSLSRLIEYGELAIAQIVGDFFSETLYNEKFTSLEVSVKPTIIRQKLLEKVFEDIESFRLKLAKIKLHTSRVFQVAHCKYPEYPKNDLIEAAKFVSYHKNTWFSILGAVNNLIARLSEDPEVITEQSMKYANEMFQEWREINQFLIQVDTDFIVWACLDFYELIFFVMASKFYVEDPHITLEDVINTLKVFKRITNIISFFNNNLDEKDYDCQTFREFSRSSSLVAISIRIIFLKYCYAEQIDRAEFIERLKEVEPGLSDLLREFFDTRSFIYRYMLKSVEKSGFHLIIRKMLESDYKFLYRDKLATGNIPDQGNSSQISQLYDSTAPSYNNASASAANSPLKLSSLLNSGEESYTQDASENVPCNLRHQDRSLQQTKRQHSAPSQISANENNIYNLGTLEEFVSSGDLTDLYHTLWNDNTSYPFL
# Experiment: PBM E-score (8-mer binding enrichment) (E-score (-0.5 to 0.5)); higher = stronger / more preferred TF binding; most listed sequences are background and not binding sites
# Conditions: protein concentration: 200 nM; construct: GST-full length
# In short: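 For each ungapped eight-base word taken together with its reverse complement, the Universal PBM Analysis Suite assigned an E-score. Binding data came from GST-tagged yeast transcription factors, applied at about 100-200 nM, on universal all-10-mer Agilent arrays made double-stranded by primer extension. Fluorescent anti-GST marked bound protein, and scans were normalised with masliner.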
row,Sequence,PBM E-score
1,CCGCGTTC,0.288
2,GACGATGA,-0.121
3,CAGGGGGC,-0.162
4,AGCGGTAG,-0.224
5,GCCCGCGA,0.156
6,GAGGGCAA,0.0725
7,TACTGGCA,-0.188
8,CACCTAGA,-0.233
9,TACTCGGA,0.336
10,AACCTACA,-0.0121
11,AGGAACAC,0.168
12,ATGCGACG,0.0842
13,AGTCATTC,-0.0557
14,CTTACGAA,-0.0993
15,CTATGCAG,-0.111
16,AAAATTGT,0.0897
17,AAGAGGAT,-0.286
18,ACAAGATC,-0.0126
19,CCTGCTAA,-0.31
20,GCGCACCA,0.107
21,AGCCGTAA,-0.0912
22,TCTAAACA,-0.271
23,GTATGTCA,-0.0199
24,GAGCAGCC,-0.0446
25,AGGTAGTA,0.0166

row,Sequence,PBM E-score
1,CAGCCCGA,0.0851
2,ACGCAGCG,-0.0522
3,ACTCTTCC,0.102
4,AACACTGG,-0.175
5,CGATGGAA,0.0341
6,ACAGCCAG,-0.0973
7,ATTCATCA,0.0396
8,GAAGACCA,-0.0161
9,ATAAGAGC,0.111
10,GAGTAGAA,-0.197
11,ACGCGGCC,0.0489
12,CGGAAGGC,0.369
13,GATTTCGA,-0.031
14,CAGAACAG,-0.0607
15,AGAAAGAC,-0.147
16,GAAATGCC,0.0864
17,AGGCCGTA,0.102
18,CGCATGCA,0.136
19,AGCGGTGA,-0.164
20,ACTAAGAG,-0.103
21,AGTAATAA,-0.177
22,GTACTGCA,-0.0762
23,ACTGCTCT,0.0618
24,GTGTCAGA,-0.00535
25,GACCAATC,-0.0364

row,Sequence,PBM E-score
1,GACGTGCC,-0.0459
2,TCCCTGCA,-0.0479
3,AGGGGGTC,-0.385
4,ATGGCCTA,-0.085
5,ATTAACGG,0.211
6,GTTGAGAA,-0.169
7,CTACATCC,0.0693
8,CATAAGTC,-0.0907
9,CAGTACAC,-0.0683
10,AATAGTGC,0.13
11,GGACGTCC,0.0601
12,CCCCAACC,0.0118
13,CCCGGGAG,0.397
14,CACAGGCG,-0.121
15,AAGCCAAT,-0.0401
16,TAACAAAA,-0.0729
17,TCGTTGCA,-0.19
18,GGCCACAC,0.0364
19,ACATTGTA,-0.0269
20,AATGCTTG,-0.214
21,TTGCTAAA,-0.209
22,GTCCGCCA,0.138
23,GCAGATGC,-0.125
24,GCTCCCAA,-0.232
25,AAACGTGA,-0.18

row,Sequence,PBM E-score
1,AGCAGTTG,0.0628
2,GCCGCAGA,0.0902
3,CATTTCAG,-0.0756
4,GCTCGCCA,0.0845
5,ACTGGTAA,-0.0923
6,CAAGGGTA,-0.0929
7,CGATTGTA,0.176
8,ATTGCCTC,-0.0698
9,AACACACG,-0.0967
10,TGCACCAA,-0.266
11,TATGTTCA,-0.00143
12,AGGCTGCC,-0.0546
13,CATACACC,0.0203
14,AACGTTGA,-0.0102
15,AGAGTTGC,0.0698
16,GGAAACAC,0.24
17,ACGTGGCT,-0.229
18,GCAAGGCA,-0.0599
19,CTCGATTA,0.0957
20,CGGGCGTC,0.193
21,CGGAGAGC,0.229
22,AGCTAAAT,-0.165
23,ATATGGCC,-0.00463
24,GAAAACTA,0.0457
25,AAGCAAAG,-0.213

row,Sequence,PBM E-score
1,AGATGCCC,0.0401
2,CTGTGTCA,-0.129
3,GCAGTAGA,-0.197
4,ACTTTCTG,-0.0394
5,CGACGAAC,0.0233
6,CGCTTATA,0.0823
7,CGTCTTTC,-0.0524
8,CTCTCCAC,-0.27
9,ACGTTTCT,-0.289
10,GCGAATGA,0.172
11,AATCCAAC,-0.0551
12,ACGACCCT,-0.14
13,CACCTCTG,-0.259
14,AGGTGGTA,0.135
15,CCTATTAC,-0.104
16,CGCGATCA,0.103
17,AGACTCCC,-0.221
18,TGCCTCAA,0.107
19,ACCGCGGC,0.399
20,CAACCTGC,0.0438
21,ACTACCGC,-0.0625
22,AAGGCTCG,-0.352
23,CCCTTCGG,0.223
24,AGACTCCT,-0.238
25,ATCTAGGC,-0.205

row,Sequence,PBM E-score
1,TCACGAAA,0.0507
2,CGCCGGCC,0.32
3,ACGCTTCG,0.00401
4,CACTCCAC,-0.0684
5,CTGAGCAA,-0.16
6,CCTTGCAC,-0.0514
7,ATCCATGA,-0.183
8,CAGGACCA,-0.00068
9,CCGTGGCC,0.147
10,CTGAAAAG,-0.119
11,GAACGTTC,0.137
12,GAGCGTAC,-0.159
13,ATTGCCAC,0.00844
14,AGCGATTA,0.0475
15,AGCCGAAG,-0.0178
16,ATCCTAGG,-0.0164
17,CCTACAGA,-0.271
18,ACCCCGGT,0.186
19,CTGGAGCC,-0.0125
20,AATGGGGT,-0.00305
21,CGTAGTTC,-0.0922
22,GGTTAAAC,-0.0501
23,ATTTGGGC,-0.117
24,GCCGAGGC,0.278
25,CGAGCACG,0.0822

row,Sequence,PBM E-score
1,AGCGAGAT,0.0494
2,CTTAAGGC,-0.0846
3,ATCGCTTC,0.0282
4,GCAAACCA,-0.0644
5,GACGTCTC,-0.145
6,GAGTGAAA,0.00784
7,TCCAACCA,-0.111
8,ATCTAGGG,-0.252
9,ATCGTGCC,0.122
10,CAGATCTC,-0.0129
11,AGGCTCCC,-0.125
12,AGCACACC,-0.0132
13,AACCAAAC,-0.105
14,ACCAAAAA,0.172
15,ATTTAGGC,-0.0454
16,CGAGGATA,-0.0668
17,ATCGTGGA,0.0124
18,GAAGCGAC,0.133
19,AAGCCTAT,-0.091
20,CTGCAGGC,-0.094
21,GCTAAACA,-0.144
22,CTATGCCA,-0.283
